In the supplement of paper PMC7826260:
Some of the results follow. Each Rep nickase domain was tested in vitro on the same pool of single strands (3 µM enzyme, 1 h, 37 °C); shown is the middle of each 90-letter strand. Numbers give uncut DNA relative to the enzyme-free pool, as log2; strong cutting gives strongly negative numbers. There is no active / inactive call. Counts are relative to all reads; uncut strands gain when others are lost, and binding without cutting may add a little.

Legend:
Assay in all cases: uncleaved DNA left, log2 of reads against the no-enzyme library (log2 ratio); higher = less cleavage (more negative = more Rep cleavage of the k-mer); sequences stand for … in CTCGTCCG…ACCGGAGA
[1] = system: T1, Rep nickase domain of Muscovy duck circovirus
T1 sequence (residues 1-111, tag not shown): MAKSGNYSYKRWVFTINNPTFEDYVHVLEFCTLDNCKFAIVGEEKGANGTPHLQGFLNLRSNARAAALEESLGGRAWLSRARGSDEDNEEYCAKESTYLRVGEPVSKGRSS
Description: (§1)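 A pool of 90-nt single-stranded DNAs with seven random bases just before the constant AC of the nick site (name = the seven bases) was cut by 3 µM recombinant His6-SUMO-tagged Rep nickase domain (300 nM DNA, 50 mM HEPES pH 8.0, 50 mM NaCl, 1 mM MnCl2, 1 h, 37 °C, three replicates). Uncut DNA was amplified and sequenced.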

[2] = system: T2, Rep nickase domain of banana bunchy top virus
T2 sequence (residues 1-94, tag not shown): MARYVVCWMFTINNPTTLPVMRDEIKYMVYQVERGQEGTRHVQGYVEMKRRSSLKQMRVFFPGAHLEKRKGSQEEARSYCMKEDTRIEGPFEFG
Description: as §1

[3] = system: T3, Rep nickase domain of cabbage leaf curl virus
T3 sequence (residues 1-116, tag not shown): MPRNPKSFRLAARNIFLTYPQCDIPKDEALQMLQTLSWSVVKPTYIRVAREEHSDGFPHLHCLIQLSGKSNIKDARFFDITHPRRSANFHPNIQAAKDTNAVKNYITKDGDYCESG
Description: as §1

[4] = system: T4, Rep nickase domain of chickpea chlorotic dwarf virus
T4 sequence (residues 1-124, tag not shown): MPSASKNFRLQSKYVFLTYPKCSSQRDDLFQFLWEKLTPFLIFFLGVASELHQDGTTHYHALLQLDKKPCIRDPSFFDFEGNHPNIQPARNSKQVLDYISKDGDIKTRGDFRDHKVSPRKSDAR
Description: as §1

[5] = system: T5, Rep nickase domain of faba bean necrotic yellows virus
T5 sequence (residues 1-98, tag not shown): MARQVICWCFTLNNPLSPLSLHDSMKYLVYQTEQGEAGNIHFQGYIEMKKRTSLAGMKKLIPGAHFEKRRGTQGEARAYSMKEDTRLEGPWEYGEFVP
Description: as §1

[6] = system: T6, Rep nickase domain of maize striate mosaic virus
T6 sequence (residues 1-117, tag not shown): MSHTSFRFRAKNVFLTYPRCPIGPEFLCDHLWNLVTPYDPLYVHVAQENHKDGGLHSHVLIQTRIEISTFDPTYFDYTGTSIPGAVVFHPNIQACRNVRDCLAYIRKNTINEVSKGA
Description: as §1

[7] = system: T7, Rep nickase domain of porcine circovirus 2
T7 sequence (residues 2-116, tag not shown): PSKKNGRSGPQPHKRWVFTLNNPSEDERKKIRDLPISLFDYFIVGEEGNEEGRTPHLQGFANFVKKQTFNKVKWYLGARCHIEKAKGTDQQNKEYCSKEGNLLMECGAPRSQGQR
Description: as §1

[8] = system: T8, Rep nickase domain of tomato golden mosaic virus
T8 sequence (residues 1-124, tag not shown): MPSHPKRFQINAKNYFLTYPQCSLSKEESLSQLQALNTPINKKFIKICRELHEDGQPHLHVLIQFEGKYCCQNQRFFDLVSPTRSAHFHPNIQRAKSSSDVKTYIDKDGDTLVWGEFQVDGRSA
Description: as §1

[9] = system: T9, Rep nickase domain of tomato yellow leaf curl virus
T9 sequence (residues 1-136, tag not shown): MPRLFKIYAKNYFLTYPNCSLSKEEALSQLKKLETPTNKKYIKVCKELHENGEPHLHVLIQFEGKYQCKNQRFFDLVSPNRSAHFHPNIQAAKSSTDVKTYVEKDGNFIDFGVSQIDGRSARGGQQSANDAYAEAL
Description: as §1

[10] = system: T10, Rep nickase domain of wheat dwarf virus
T10 sequence (residues 1-137, tag not shown): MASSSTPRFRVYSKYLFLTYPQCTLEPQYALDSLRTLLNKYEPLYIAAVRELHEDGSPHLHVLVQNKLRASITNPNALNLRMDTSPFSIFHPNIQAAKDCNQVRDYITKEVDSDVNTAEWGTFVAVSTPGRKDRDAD
Description: as §1

Sequence	uncleaved DNA left (log2) [1]	uncleaved DNA left (log2) [2]	uncleaved DNA left (log2) [3]	uncleaved DNA left (log2) [4]	uncleaved DNA left (log2) [5]	uncleaved DNA left (log2) [6]	uncleaved DNA left (log2) [7]	uncleaved DNA left (log2) [8]	uncleaved DNA left (log2) [9]	uncleaved DNA left (log2) [10]
CGCTGGT	-0.132	0.00878	0.015	0.192	-0.0925	0.249	-0.727	-0.0955	-0.188	-0.0655
GTCAGCG	-0.125	0.0314	-0.778	-0.457	-0.19	-1.03	0.0913	-0.0778	0.0226	-0.123
GGCAAGC	0.0479	0.0354	0.55	1.2	-0.116	1.55	0.196	0.0494	-0.113	-0.064
GCTCTCG	-0.104	-0.0171	-0.697	-0.336	0.0899	-0.831	0.201	0.00875	0.0141	-0.0132
TGCCGGG	0.13	0.0287	0.401	0.539	0.095	0.522	0.213	0.0707	0.0252	0.011
GAATAGT	-2.74	-0.371	-2.76	-2.24	-0.0618	-2.27	-3.02	-2.77	-0.0109	-2.73
AGCGTAG	0.0222	0.0374	-0.103	0.434	-0.012	0.477	0.0762	0.0532	0.0237	0.0728
GGCACAA	0.0172	0.0188	0.66	1.68	-0.0636	2	0.207	-0.0249	-0.0953	0.15
AAACGAC	-0.0444	-0.117	-0.136	-0.101	-0.0168	-0.549	0.0453	-0.105	-0.152	-0.0574
CAGATCG	-0.0302	-0.0156	-0.855	-0.169	0.0192	-1.02	0.177	-0.0967	-0.15	-0.0859
TGCGCGA	0.0389	-0.0675	-0.743	-0.473	-0.0674	-0.833	0.112	-0.162	-0.0554	-0.134
GCGATCG	0.089	-0.00549	-0.326	-0.087	-0.0527	-0.54	0.0611	-0.0659	-0.0146	-0.0383
CATAAGG	0.204	0.125	0.189	0.955	0.0883	0.131	0.217	0.248	0.101	0.13
ATAATAT	0.0581	0.0499	0.29	-0.997	0.118	-0.608	-0.0226	0.0796	0.0236	0.0627
TCCATCC	0.0154	0.0238	0.0511	-0.091	-0.0747	-0.593	-0.000621	0.0399	-0.0143	-0.0412
AACACTC	-0.0394	-0.0805	-0.0751	-0.748	-0.0191	-0.735	0.0285	0.0795	-0.0834	0.0235
TAAACCC	-0.344	-0.133	-2.65	-3.01	-0.0226	-0.739	-0.848	-0.432	-0.122	-1.73
AGCTACT	-0.255	0.108	0.0558	0.265	0.104	1.63	-2.63	0.185	0.0169	0.115
GTTATTA	0.00356	0.0729	0.326	0.813	0.0682	1.9	0.147	0.191	0.174	0.1
TGGGCCA	0.177	0.189	0.847	1.79	0.0196	2.14	0.289	0.168	0.151	0.203

Sequence	uncleaved DNA left (log2) [1]	uncleaved DNA left (log2) [2]	uncleaved DNA left (log2) [3]	uncleaved DNA left (log2) [4]	uncleaved DNA left (log2) [5]	uncleaved DNA left (log2) [6]	uncleaved DNA left (log2) [7]	uncleaved DNA left (log2) [8]	uncleaved DNA left (log2) [9]	uncleaved DNA left (log2) [10]
GCTGCAC	0.00394	0.103	-0.0612	0.258	0.0628	-0.149	0.079	-0.0121	0.0614	0.0375
ATGGCCT	0.167	0.0309	-0.0191	-0.336	0.132	0.468	0.00197	0.0672	-0.0173	0.0473
CATCGGC	-0.0364	-0.0485	-0.302	-0.364	-0.104	-1.18	0.0179	-0.115	-0.0601	-0.106
CCATACC	-0.125	-0.0186	-0.0691	-1.23	0.0143	-0.729	-0.732	0.0369	-0.0447	0.0427
ACTACAG	0.00037	0.14	-0.748	-0.846	0.132	-1.16	0.22	0.0702	0.112	0.00421
AATGGCA	0.121	0.0698	-0.159	-0.185	0.0744	-0.633	0.157	0.113	0.0607	0.0136
CTTTGTT	-3.1	-1.44	-0.829	-2.97	-0.192	-1.38	-3.24	-0.179	0.0641	-0.661
CCATGTA	-0.247	-0.15	-0.614	-1.11	-0.0717	-1.31	-0.315	-0.185	-0.226	-0.263
AGCCGAC	-0.0142	-0.127	0.0437	0.462	-0.0906	0.781	-0.0178	-0.00496	-0.101	-0.104
GTAGGAG	-0.0155	0.00893	0.0426	0.375	0.153	-0.328	0.191	0.0385	0.0661	0.0837
TAGGGAT	-0.00721	0.081	0.215	1.59	-0.0971	1.83	0.133	0.11	-0.0735	0.00354
ATGAGCA	-0.0322	-0.0217	-0.376	-0.909	0.0121	-0.974	-2.08	-0.0189	-0.0492	-0.0163
TTGGCCA	0.149	0.191	0.271	0.0386	0.0742	0.209	0.154	0.017	0.0917	0.209
TCGTACC	-0.193	-0.0407	-0.0492	-0.902	-0.139	-0.212	-2.6	-0.24	0.0998	-0.0828
GCATCAT	0.029	0.103	0.302	0.666	-0.146	0.539	0.113	0.016	0.0787	0.114
GACCTAA	0.165	0.0864	0.227	0.356	0.116	0.551	-0.0978	0.00819	0.127	0.00387
GTGTACA	0.0573	0.124	0.294	0.982	0.00077	1.84	0.0964	0.0447	0.191	0.0644
TTTGTGT	0.0146	0.0142	-0.663	-0.887	0.0896	-1.15	0.0885	0.000591	0.0514	-0.123
AAAAACA	0.036	0.108	-0.358	-2.2	0.193	-0.625	0.0224	0.173	0.0847	0.125
ACAGTGA	-0.0256	-0.109	-0.554	-0.735	-0.0577	-1.32	0.0243	0.07	-0.102	-0.108

Sequence	uncleaved DNA left (log2) [1]	uncleaved DNA left (log2) [2]	uncleaved DNA left (log2) [3]	uncleaved DNA left (log2) [4]	uncleaved DNA left (log2) [5]	uncleaved DNA left (log2) [6]	uncleaved DNA left (log2) [7]	uncleaved DNA left (log2) [8]	uncleaved DNA left (log2) [9]	uncleaved DNA left (log2) [10]
TCCCCCT	-0.0111	-0.167	-0.115	-1.67	0.118	-0.354	-0.392	-0.153	-0.0809	-0.052
CAGGGCA	0.0863	0.0161	0.00461	0.194	0.0121	-0.0539	-0.0158	-0.0425	0.0542	-0.0116
GCTCCAC	-0.0475	0.0976	0.096	0.384	0.0634	0.253	-0.00611	-0.0124	0.00745	0.0766
TTCGAAC	-0.00243	-0.0243	0.0899	-0.229	0.011	-0.45	-0.0265	-0.0758	0.0135	0.0446
AAATGGG	0.0784	0.00269	-0.661	-0.759	0.0791	-0.993	0.109	0.0449	0.0604	0.0153
CGTGCAA	-0.0419	-0.047	0.0751	0.159	-0.00902	-0.136	-0.187	0.0113	0.0367	-0.0876
GCCGAGC	0.048	0.0797	0.506	0.974	0.0722	0.693	0.104	0.016	0.0471	0.0942
CGTGCCA	-0.00228	-0.0323	0.165	0.232	0.00992	0.232	-0.0934	0.019	0.14	0.00626
TTGTAAG	-0.0796	-0.212	-0.965	-0.734	-0.0805	-1.34	0.0359	-0.113	-0.152	-0.199
CTGGATG	0.13	-0.0699	-0.0842	0.152	-0.0914	-0.338	0.204	0.0939	-0.0897	-0.132
ACCGCGC	-0.0399	-0.102	-0.474	0.565	-0.246	-0.09	-0.0632	-0.185	-0.19	-0.137
TTTCTTC	0.0557	-0.0662	0.112	-0.354	0.0571	-0.438	0.0243	-0.0872	0.0167	-0.0162
ACGATAC	0.0293	0.0359	-0.101	-0.369	0.109	-0.56	0.188	0.14	-0.046	-0.0588
GCGCGAT	0.0962	-0.0903	-0.241	0.116	-0.0882	-0.101	0.028	0.0133	0.0421	0.0529
CTTTCTC	-0.105	-0.00452	0.0144	-0.318	0.00131	-0.556	0.0651	-0.0181	-0.0428	0.0516
GGTGGGA	0.0836	0.0914	0.581	1.3	-0.0104	1.75	0.227	0.0249	0.0268	0.128
ATGAAAT	-0.00124	-0.000755	0.0648	0.235	0.0035	0.27	-0.236	0.0704	-0.0264	0.0468
TTGGAAG	-0.106	-0.0615	-0.777	-0.587	0.0277	-0.991	0.0471	-0.0806	-0.0382	-0.151
TATGTTA	-0.0788	-0.00144	-0.0813	-1.65	0.0501	-0.325	-0.278	-0.135	0.123	-0.218
CTGTCTA	-0.0375	-0.104	-0.183	-1.07	-0.0288	-0.59	-0.168	-0.249	-0.00982	-0.127
